# Out of some 420,000 compounds screened, about 64,000 (15%) were called active. The shares of active, inactive and inconclusive entries below differ from those in the screen. Calls come from the whole dose curve; as a rule, active = well fitted inhibition curve with a large enough effect; inconclusive = small, poorly fitted or top-dose-only effect; inactive = flat fitted curve, though single readings scatter. Potencies of inconclusive entries are left out as doubtful fits.
# Test: qHTS for Inhibitors of human tyrosyl-DNA phosphodiesterase 1 (TDP1): qHTS in cells in absence of CPT; note: nearly all actives have a fitted effect of over 55% in size
# Settings: DT40 Tdp1-/- hTDP1 cells, no CPT, ATP luminescence, 48 h; activity change, negative = growth inhibition: at 46.2 µM (top of the series) unless noted
# Procedure, shortened: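 No-CPT arm: Tdp1-/-;hTDP1 DT40 cells (400/well) plus compounds, incubated ≥48 hr at 37 °C. Readout CellTiter-Glo luminescence.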
# % is set by controls: 0 for no effect and ±100 for the full control effect; potency is the fitted concentration of half-maximal effect; tags give direction and shape of the fitted curve.
SMILES,Potency,"activity change, negative = growth inhibition"
C/C(N)=C(/C#N)C(=O)CSc1nnnn1-c1ccc(C)cc1C,active: 13 µM,
COc1ccc(CCNc2oc(COc3cccc(C)c3)nc2C#N)cc1OC,active: 23.1 µM,
O=C(NNC(=O)C1CCCCC1)c1cnccn1,,inconclusive: -31.7% [inhibitor]
CCCOc1ccc(F)cc1-c1cc(C(=O)Nc2ccc(F)cc2)[nH]n1,"inconclusive [inhibitor, single point]",
CCCNC(=O)c1cnn2c(C(F)F)cc(-c3ccccc3)nc12,active: 20.6 µM,
CC1CCN(S(=O)(=O)c2ccc3c(ccc(=O)n3CC(=O)NCc3ccc(Cl)cc3)c2)CC1,"inconclusive [inhibitor, single point]",
CCc1ccccc1NC(=S)N(Cc1ccc(OC)cc1)CC1CCC(C(=O)O)CC1 (configuration not stated),inactive,
COc1cc(OC)cc(C(=O)NCC(=O)OCC(=O)N2CCc3ccccc32)c1,"inconclusive [inhibitor, single point]",
COc1ccc(-c2nc(Cn3c(=O)cc(-c4ccccc4)c4c(C)nn(C)c43)c(C)o2)cc1OC,"inconclusive [inhibitor, single point]",
Cc1cc(NC(=O)c2cccs2)n(-c2nc3ccccc3[nH]2)n1,active: 20.6 µM,
O=C(c1cccc(S(=O)(=O)NCc2ccccc2)c1)N1CCN(c2ccccc2Cl)CC1,"inconclusive [inhibitor, single point]",
O=C(Nc1cccc(-n2cccn2)c1)C1CCCN(Cc2ccc(C#CCCO)cc2)C1 (configuration not stated),active: 20.6 µM,
CCOc1ccc(NC(=O)C(CC(=O)O)Cc2ccccc2)cc1 (configuration not stated),,inconclusive: -36.9% [inhibitor]
C=CCC[C@H](CCCCC)OC(=O)/C=C/[C@@H](O)[C@H](O)C[C@@H](O)CC=C,active: 18.4 µM,
COc1cc(NS(=O)(=O)c2ccc(Nc3nc(-c4ccccn4)cs3)cc2)nc(OC)n1,inactive,
Cc1nn(C)cc1S(=O)(=O)N1CCCCC1C (configuration not stated),inactive,
CCCCC(c1nc2ccccc2[nH]1)n1c(-c2ccccc2)nc2cc(C)c(C)cc21 (configuration not stated),active: 23.1 µM,
CCC(Cc1ccccc1)NS(=O)(=O)c1csc(C(N)=O)c1 (configuration not stated),inactive,
COc1ccccc1OCC(=O)N1CCCCCC1,"inconclusive [inhibitor, partial curve]",
N#CC1C(=N)Cc2ccccc2-c2ccccc21 (configuration not stated),active: 20.6 µM,
CNC(=O)c1cc(C(=O)c2ccccc2C(F)(F)F)c[nH]1,"inconclusive [inhibitor, single point]",
CCCCn1nnnc1C(c1ccccc1)N1CCN(c2cccc(C(F)(F)F)n2)CC1 (configuration not stated),"inconclusive [inhibitor, single point]",

# — PubChem BioAssay AID686978 (National Center for Advancing Translational Sciences (NCATS), 2013)
